The source of these data is ChEMBL document CHEMBL1201862, “PubChem BioAssay data set” (2004).

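Results reflect a 48-hour exposure of cells in 96-well plates to compound at five concentrations. GI50 = concentration required for 50% inhibition of growth.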 Active and inactive are the calls of the source. No stated cut-off is given here; in the data, active = GI50 up to about 1.1 µM and inactive = higher.

The test system of the test is NCI-H322M. The experiment in a line: inhibition of tumour cell growth, NCI panel, 48 h.
Consider `CCCCn1cnc2c(SC)ncnc21`, for which the GI50 was inactive: 37.9 µM. For `c1ccc(-c2csc3ncn4cnnc4c23)cc1` the value was inactive: > 10 µM; for `COc1cc(NCCC(=O)O)c2ncccc2c1`, inactive: > 100 µM; for `CCSc1cc2c(cc1O)CC[C@@H]1[C@@H]2CC[C@]2(C)[C@@H](O)CC[C@@H]12`, inactive: 16.9 µM. For `COc1ccc(C2=NN(c3ccccc3)C[N+](c3ccc(C)cc3)=N2)cc1` the value was inactive: 29.5 µM; for `CC(C)C(Sc1nc(-c2ccccc2)c(-c2ccccc2)[nH]1)C(=O)NN` (stereo not given), inactive: 76.9 µM; for `CN1C(=O)n2c(nc3ccccc32)C(N=[N+]=[N-])(N=[N+]=[N-])C1=O` (stereo not given), inactive: > 100 µM. On to `O=C(Cc1c(C(=O)Nc2ccccc2)sc(C(=O)Nc2ccccc2)c1CC(=O)Nc1ccccc1)Nc1ccccc1`, for which the GI50 is inactive: 2.28 µM. As for `Nc1ncn2c(n1)nc1ccccc12`, the GI50 was inactive: > 100 µM. Under `CC(C)CCCC(C)[C@H]1CCC2[C@@H]3CCC4Cc5nc6c(nc5C[C@]4(C)C3CC[C@@]21C)CC1CC[C@@H]2C(CC[C@@]3(C)C2CC[C@@H]3C(C)CCCC(C)C)[C@@]1(C)C6` (stereo not given in full) stands inactive: > 100 µM. Under `CC(C)NCCNC(=O)c1ccccc1Nc1c(Cl)cccc1Cl` stands inactive: 10.5 µM; under `O=c1c(-c2nc3ccccc3c3ccccc3c2=O)nc2ccccc2c2ccccc12`, inactive: > 100 µM; under `CCOC(=O)/C=C(\C(=O)OCC)n1cc(Cl)c(=O)n(CC(=O)OCC)c1=O`, inactive: 18.7 µM. Consider `O=C1NC(N2CCCC(CO)C2)=N/C1=C\c1ccc(Cl)cc1` (stereo not given), for which the GI50 is inactive: > 100 µM. Under `O=C(O)c1nc2ccc(C(F)(F)F)cc2nc1Nc1ccc(Cl)c(Cl)c1` stands inactive: 14.4 µM. For `CC(C)(C)OC(=O)N1CCc2[nH][nH]c(=O)c2C1` the value was inactive: > 100 µM. Consider `CC(=O)O[C@H]1CC[C@@]2(C)C(=CC[C@@H]3[C@@H]2CC[C@]2(C)C(=N/O)/C(=C\c4ccccc4)C[C@@H]32)C1`, for which the GI50 was inactive: 17.4 µM. Under `O=C(O)C(C(=O)C(=O)C(C(=O)O)c1ccc(Cl)cc1)c1ccc(Cl)cc1` (stereo not given) stands inactive: 4.29 µM. In the case of `O=C(O)C(Br)C(Br)C(=O)O` (stereo not given), the GI50 is inactive: > 100 µM. Under `O=C(NCCCN1CCN(CCCNC(=O)Nc2cc(Cl)ccc2Cl)CC1)Nc1cc(Cl)ccc1Cl` stands inactive: > 100 µM; under `Cn1[nH]nn/c1=N\N=C\c1ccccc1`, inactive: > 10 µM.

In the case of `O=C1CCCC2=C1CC1=C(CCCC1=O)N2c1ccccc1`, the GI50 was inactive: > 100 µM.

Turning to `OCC(O)COc1c(Cl)ccc(Cl)c1Cl` (stereo not given), the GI50 is inactive: > 100 µM.

Consider `c1ccc(CSc2ccccc2CN2CCN(Cc3ccccc3SCc3ccccc3)CCN(Cc3ccccc3SCc3ccccc3)CC2)cc1`, for which the GI50 was inactive: 1.82 µM. Under `CCOC(=O)CCC(=O)C1c2cccc(O)c2C(=O)c2c(O)cccc21` stands inactive: 1.36 µM. For `O=C(CO[N+](=O)[O-])OCC(=O)c1ccccc1` the value was inactive: > 100 µM; for `O=C(CN1CCCCC1)N1CCc2c([nH]c3ccccc23)C1c1cccnc1` (stereo not given), inactive: > 100 µM; for `CCN(CC)CCOCCn1c2c(c3ccccc31)CCCC2`, inactive: 40 µM. As to `O=C1C=CC2(C=C1)CCC(=O)O2`, the GI50 is inactive: 18.7 µM. For `CC(C)[Si]1(C(C)C)OCC2OC3(CO)C(Oc4nc(=O)ccn43)C2O[Si](C(C)C)(C(C)C)O1` (stereo not given) the value was inactive: 16.6 µM; for `C=CCCC(O)c1cc(C)c(O)c(C)c1` (stereo not given), inactive: > 100 µM; for `Cn1cnc(CCc2ccccc2)n1`, inactive: > 100 µM. In the case of `COc1ccc(/N=C2\C(=N/c3ccc(OC)cc3)N(c3ccc(N(C)C)cc3)C(=S)N2c2ccc(OC)cc2)cc1`, the GI50 was inactive: > 80 µM. Under `Nc1ncc2c(n1)-c1ccccc1OC2N1CCCCC1` (stereo not given) stands inactive: > 100 µM; under `CO/N=C1\CC(NC(=O)C(F)(F)F)c2ccsc21` (stereo not given), inactive: > 100 µM. In the case of `Cc1ccc(NC(=O)OCC(COc2ccc(Cl)cc2Cl)OC(=O)Nc2ccc(C)cc2)cc1` (stereo not given), the GI50 was inactive: 7.94 µM. For `C[C@]12CC=CC(=O)[C@@]1(C)CCC(=O)C2`, the GI50 is inactive: > 100 µM. As to `CCOC(=O)/C=C(/C(=O)OCC)n1cc(C)c(=O)n(/C(=C/C(=O)OCC)C(=O)OCC)c1=O`, the GI50 was inactive: 16 µM. Under `CCCCc1c2c(nc3c1CCCC3O)CCCC2` (stereo not given) stands inactive: > 100 µM.

In the case of `Cc1ccc(/C=C2\CCCC(CN3CCCCC3)C2=O)cc1` (stereo not given), the GI50 was inactive: 16.1 µM. Consider `CN(C)c1ccc(C(c2ccc(Cl)cc2)c2ccc(N(C)C)cc2)cc1`, for which the GI50 was inactive: > 100 µM.

As for `COc1ccc(/C=C\c2cc(OC)c(OC)c(OC)c2)cc1OC(=O)C(N)CCC(=O)O` (stereo not given), the GI50 is active: 0.000518 µM. For `O=C1C2Cc3ccccc3CN2C(=O)N1CN1CCN(CN2C(=O)C3Cc4ccccc4CN3C2=O)CC1` (stereo not given) the value was inactive: > 100 µM; for `O=c1/c(=C/c2ccc(Cl)cc2Cl)sc2nc3ccccc3n12`, inactive: > 100 µM; for `CC(C)(C)OC(=O)[C@@H]1ON2O[C@H](OC3CCCC3(c3ccccc3)c3ccccc3)C[C@H]3OC(=O)[C@@H]1[C@H]32` (stereo not given in full), inactive: > 100 µM.

Take `Nc1ccccc1.O=C(O)C(C(F)(F)F)C(F)(F)F`: the GI50 was inactive: 53.8 µM. Under `COC(=O)[C@@H](NC1(c2ccccc2)c2ccccc2-c2ccccc21)[C@H](OC(=O)[C@H]1CCCN1S(=O)(=O)c1ccccc1)C(=O)OC` stands inactive: > 100 µM.

`Clc1ccc(C[P+](c2ccccc2)(c2ccccc2)c2ccccc2)c(Cl)c1`: the GI50 was inactive: 6.46 µM. For `Cc1ccc(C2=C(C#N)C(N)OC3=C2COc2ccccc23)cc1` (stereo not given) the value was inactive: 2.99 µM; for `COCC12CCC(OC)C34C5CC6(O)C(OC)CC(OC(C)=O)(C5C6OC(=O)c5ccccc5)C(C(OC)C13)C4N(C)C2` (stereo not given), inactive: > 100 µM. Consider `CC(/C=N/N(C)C1=NCCCN1)=N/N(C)C1=NCCCN1`, for which the GI50 was inactive: > 100 µM. On to `Cc1nc2c(o1)/C(=N\c1ccccc1)c1nc(C)oc1/C2=N/c1ccccc1`, for which the GI50 was inactive: 28.5 µM. `N#CCCN(CCC#N)c1ccc(/C=C2\N=C(c3ccccc3)N(c3ccc(Cl)cc3)C2=O)cc1`: the GI50 is inactive: 65.6 µM. For `Clc1ccc(C2Nc3ccccc3C3=NCCN32)cc1` (stereo not given) the value was inactive: 17.3 µM; for `O=C1NC(S(=O)(=O)O)=NNC12c1ccccc1-c1ccccc12`, inactive: > 10 µM; for `O=C1NP23(OCCO2)Oc2ccccc2C3(C(F)(F)F)O1` (stereo not given), inactive: > 100 µM. With `O=[N+]([O-])C(=C(NCc1ccccc1)NCc1ccccc1)C(Cl)=C(Cl)Cl`, the GI50 is inactive: > 100 µM. Under `c1ccc(NC[Si]23OCCN(CCO2)CCO3)cc1` stands inactive: > 100 µM; under `COc1c(O)cc2c(c1O)C(=O)C1=C(CCCC1)C2=O`, inactive: 23.9 µM; under `COc1nc(N)nc2c1ncn2C1CC(O)C(CO)O1` (stereo not given), inactive: > 100 µM.

In the case of `COc1ccc(OC)c(N2CC(N)C2=O)c1` (stereo not given), the GI50 was inactive: > 100 µM. On to `CC(=O)O/C(C)=C\C(=O)O/N=C(\N)c1ccc(C)cc1`, for which the GI50 was inactive: 88.5 µM. As for `O=C1C(Cl)N(c2ccc(Cl)cc2)C1c1c[nH]c2ccccc12` (stereo not given), the GI50 is inactive: 16.4 µM. As to `CC/C(CC(=O)CCC(=O)Nc1ccccc1[N+](=O)[O-])=N/NC(=O)C[n+]1ccccc1`, the GI50 was inactive: > 100 µM. For `Cc1csc(/N=C(/NCCN2CCOCC2)Nc2nc(C)cs2)n1` the value was inactive: > 100 µM; for `COc1cc2ccnc3c2c(c1O)N(C)C=C3`, inactive: 17.4 µM; for `CC(CO)CCNc1ncnc2c1ncn2CCC(=O)O` (stereo not given), inactive: > 100 µM. With `COC(=O)[C@H](CCSC)NC(=O)c1ccc(CNC(=O)/C(C)=C/c2ccccc2)cc1`, the GI50 was inactive: 22.1 µM. As to `C[n+]1c(/C=C/c2ccc(O)c3ncccc23)[se]c2ccccc21`, the GI50 is inactive: 6.44 µM. As to `Nc1ccccc1C(=O)CCc1c[nH]c2ccccc12`, the GI50 is inactive: 76.7 µM.

For `Nc1nc(-c2ccccc2)cc(-c2ccc(F)cc2)c1-c1ccc(Cl)cc1`, the GI50 was inactive: > 100 µM. Under `COc1ccc(C2c3cc4c(cc3OC3(OC)COC(=O)C23)OCO4)c(OC)c1` (stereo not given) stands inactive: 31.8 µM.

As to `O=c1oc2c(ccc3c(O)cccc32)c2c1CCCC2`, the GI50 is inactive: 27.8 µM. For `CSc1nc2c(nc(N)n2C2OC(CO)C(O)C(O)C2O)c(=O)[nH]1` (stereo not given) the value was inactive: > 100 µM; for `O=C(c1ccccc1)N1CCN(C(=S)NC2CCCCC2)C1=S`, inactive: 21.6 µM. Turning to `CCOC(=O)C(C(=O)OCC)S(C)(=O)=O`, the GI50 was inactive: > 100 µM. As for `COc1cc(C(=O)O)ccc1OS(=O)(=O)O`, the GI50 was inactive: > 100 µM. Regarding `CC1Oc2c(c(=O)oc3ccccc23)[C@@]1(C)CC1C[C@H](C)C(=O)O1` (stereo not given in full), the GI50 was inactive: > 100 µM. As for `O=C(O)CCCc1ccc2ccc3ccccc3c2c1`, the GI50 was inactive: > 100 µM. Take `Oc1cc(-c2c[nH]c3ccccc23)nc2cc3c(cc12)OCO3`: the GI50 is inactive: > 100 µM. For the compound `Cc1cc(C)cc(Nc2cc(O)nc(O)n2)c1`, the GI50 was inactive: > 100 µM. In the case of `O=C1CC(c2ccccc2Cl)Oc2ccccc21` (stereo not given), the GI50 is inactive: > 100 µM. For `N#C/C(=C\c1cc(Br)c(O)c(Br)c1)c1cccnc1` the value was inactive: 42.5 µM; for `COc1ccc(C(O)c2cc(OC)c(OC)c(OC)c2)cc1` (stereo not given), inactive: 41.4 µM; for `CCOC(=O)c1csc(-c2cn(C)c3c2C(=O)C(OC)=CC3=O)n1`, inactive: 29 µM.
